Experimental data as given in patent publication US6723699B1, “Treating disorders by application of insulin-like growth factors and analogs” (Cephalon, Inc., priority 1989, dated 2004).

Columns and labels:
[1] = system: cultured rat septal cells; assay: ChAT activity in cultured rat septal cells; type: cell-based
Protocol: The effect of simultaneous administration of IGF-I and NGF on ChAT activity was assayed in cultured septal neurons. ChAT is the initial enzyme in the synthesis of the neurotransmitter, acetylcholine, and is a specific biochemical marker for cholinergic neurons. Assay of this enzyme may be used as an indication of the effects of IGF (and other factors) on the survival of cholinergic neurons and/or regulation of this enzyme. […] In FIG. 9 open squares represent IGF-I, diamonds indicate IGF-I+2 nM NGF, open circles indicate 2 nM NGF, and the horizontal line at 403 DPM represents uninduced cells. A similar additive effect was seen when saturating concentrations of IGF-I were combined with saturating or sub-maximal concentrations of NGF, as shown in FIG. 10. In FIG. 10 open squares indicate NGF, diamonds indicate NGF+25 nM IGF-I, open circles represent 25 nM IGF-I, and the horizontal line at 554 DPM represents uninduced cells.
Cultured rat septal cell experiments were performed generally as described in Hartikku and Hefti, J. Neuroscience, 8:2967-2985 […], Hayashi and Patel, Dev. Brain Res., 36:109-120 (1987), and as follows.
(§1) Dissociated cell cultures of the septal region of day 17 embryonic rats were prepared by standard techniques known to those skilled in the art, using enzymatic (Dispase, Collaborative Research) dissociation of tissue. Cells were seeded (plated) at 6×10^5 cells/cm^2 in poly-1-ornithine-laminin coated plastic tissue culture wells, and cultured in serum-free N2 medium (Bottenstein et al., 1978) for 5 days without feeding. Control (uninduced) cultures received no added growth factors; induced cultures received the concentrations of IGF-I and NGF indicated in FIGS. 9 and 10 at the time of plating. NGF is commercially available. ChAT was assayed by the method described in McManaman, et al. Dev. Biol. 125:311-320 (1988). AChE staining was performed according to the method of Hartikka and Hefti, J. Neuroscience 8:2967-2985 (1988).

[2] = system: septal cultures; assay: Number of AChE positive cells in rat septal cultures; type: cell-based; settings: 2 nM NGF; same conditions
Protocol: as §1
We have shown that under specific culture conditions (4×10^5 cells/cm^2 in the presence of medium containing 10% bovine calf serum), IGF-I increased the number of AChE positive cells by 3-4 fold over control, growth factor-free cultures, FIG. 12.

[3] = system: 125I-[Threonine59]IGF-I binding to brain tissue sections; assay: 125I-[Threonine59]IGF-I binding displacement on rat brain tissue sections
Protocol: Brains were removed intact from adult Sprague-Dawley rats, frozen on powdered dry ice, and cut into 20 μm sections (at the level of the cerebellum and brain stem) which were
thaw-mounted onto gelatin-coated glass microscope slides (Herkenham and Pert, J. Neurosci. 2:1129-1149 (1982)). Using a modification of the method of Bohannon et al. (1986), the tissue sections were covered with 250 μl of HEPES assay buffer (see Example 1) containing 0.01 nM ^125I-[Threonine^59]IGF-I alone or in combination with unlabeled IGF-I, IGF-II, or synthetic peptide fragments thereof. The sections were incubated at 4° C. for 24 hours and then rinsed in three 1-minute changes (200 ml each) of ice-cold HEPES assay buffer. The tissue sections were then wiped off the slides with filter paper, and the tissue-bound radioactivity was measured in a Beckman Model 5500B Gamma Counter.

[4] = molecular target: T1, IGF-I receptor (Rattus norvegicus, UniProt P24062); assay: 125I-[Threonine59]IGF-I displacement (IGF-I receptor competition) assay, rat brain homogenate; type: binding; settings: for displacement of 125I-[Threonine59]IGF-I (in words): rat brain homogenate
T1 construct: Brain tissue containing the cerebral cortex and cerebellum was dissected from adult Sprague-Dawley rats; from tissue; host or cells: adult Sprague-Dawley rat brain (cerebral cortex and cerebellum), homogenate pellet
Protocol: Brain tissue containing the cerebral cortex and cerebellum was dissected from adult Sprague-Dawley rats (Hilltop Lab Animals, Inc. Scottsdale, Pa.) and homogenized at low power for 5 minutes in a Brinkmann Polytron homogenizer (Westbury, N.Y.) containing 50 volumes of ice-cold buffer consisting of 10 mM HEPES, 0.5% BSA, 0.0125% NEM, 0.025% bacitracin, and 100 KIU/ml aprotinin, pH 7.6 (Bohannon et al., Endocrinology 119:943-945 (1986). Following homogenization, the tissue was collected after centrifugation at 7800×g for 20 minutes and resuspended in 10 volumes of assay buffer. Tissue (50 μl), 100 μl ^125I-[Threonine^59]IGF-I (20 pM), and 50 μl of buffer or peptides of varying concentration were added to 96-well plates and incubated on ice for 3 hours. After the incubation period, the tissue was collected on Whatman GF/C filters that had been pre-soaked in 0.01% polyethylenimine and washed four times with ice-cold assay buffer using a Brandel cell harvester (Gaithersburg, Md.). The filters were removed and the bound ^125I-[Threonine 59]IGF-I was measured using a Beckman Model 5500B Gamma Counter.

[5] = system: 14-day embryonic rat spinal cord neurons; assay: Choline acetyltransferase activity in dissociated embryonic rat spinal cord neuron cultures; type: cell-based; settings: 48 hr incubation
Protocol: The activity of IGF-I, IGF-II, or synthetic peptide derivatives of these molecules was assayed on dissociated cultures of 14-day embryonic rat spinal cord neurons. The spinal cord neurons were obtained from trypsin-dissociated spinal cords, plated, incubated with peptides, and subsequently (48 hr later) assayed for choline acetyltransferase activity as described by […] et al., Dev. Biol. 125:311-320 (1988).

[6] = system: motoneurons; assay: Motoneuron survival in ovo (developmentally regulated motoneuron death); type: in vivo, chick; settings: 5 μg/egg daily onto chorioallantoic membrane, E6 to E9, counted E10
Source text: In the spinal cord, as well as in other regions of the nervous system, neurons are over-produced during development, and undergo a process of naturally occurring cell death prior to […] (reviewed in Oppenheim, R. W. 1991, Annu Rev. Neurosci. 14:453-501). During this period, approximately 50% of the motoneurons degenerate and die. Certain neurotrophic agents applied exogenously during this period prevent or retard this form of neuronal death (e.g., partially purified muscle extracts and ciliary neurotrophic factor reduce motor neuron death in chick embryos (McManaman et al., 1990, Neuron 4:891-898; Oppenheim et al. 1991, Science 25:1616-1617).
The IGFs were administered daily onto chorioallantoic membrane (5 μg/egg in a volume of 50 μl) from embryonic day E6 to E9 through a small window cut into the shell of the egg. Control embryos received an equal volume of vehicle (phosphate buffered saline) alone on E10, the embryos were removed, sacrificed and the spinal cords sectioned. Motoneurons (identified morphologically in silver-stained sections) were counted in serial sections from both treated and control embryos. […] The differences between effects produced by the different IGFs used were not statistically significant (Student t test […]).

[7] = system: 14.5 day embryonic rat spinal cord neurons; assay: Choline acetyltransferase activity in 14.5 day embryonic rat spinal cord neurons, serum-free; type: cell-based
Protocol: The activity of IGF-I, IGF-II and IGF-III was assayed on dissociated cultures of 14.5 day embryonic rat spinal cord neurons. The spinal cords were removed from embryos and dissociated in 0.05% trypsin in Dulbecco's Phosphate Buffered Saline (DPBS). Dissociated cells were seeded onto poly-1-ornithine substrates in 96 well microtiter plates at 2×10^5 cells/well in 200 μl of serum-free and insulin-free N2 medium (Bottenstein and Sato, 1979 supra) containing 0.05% bovine serum albumin. After a 48 hr incubation at 37° C. in a humidified atmosphere of 5% CO2, 95% air, cultures were assayed for choline acetyltransferase activity according to a modification (McMananman et al., Dev. Bio., 25:311-320 (1988)) of the technique described by Fonnum (Fonnum, J. Neurochem. 24:405-409 (1975)).

[8] = system: brain ornithine decarboxylase; assay: Induction of brain ornithine decarboxylase after intracerebral injection, 4 day old rats; type: in vivo, rat; settings: 6 hours
Protocol: The in vivo activity of IGF-I, IGF-II or synthetic peptide derivatives of these molecules was tested using a biochemical marker for CNS neurotrophic activity, the induction of brain ornithine decarboxylase. The induction (i.e. increased activity) of ornithine decarboxylase has been reported to be a general marker for the actions of a variety of trophic factors. (Schwartz et al., Dev. Brain Res. 1:403-413 (1981); Kanje et al., Brain Res. 381:24-28 (1986); Russell et al., Life Sci. 19:1297-1306 (1976); MacDonnell et al. Proc. Natl. Acad. Sci. USA 74, 4681-4684 (1977); […] et al. Proc. Natl. Acad. Sci. USA 82, 4365-4368 (1985)). Sprague-Dawley rats, 4 days old, were injected intracerebrally (in the area of the lateral ventricle) with 5 μl of 0.1 M phosphate-buffered saline (PBS) containing IGF-I, IGF-II or a synthetic peptide derivative (1.25-2.5 μg dose, with 6 animals per treatment group). After 6 hours, the brains were removed, and ornithine decarboxylase was assayed essentially as described by Lewis et al., Proc. Natl. Acad. Sci. USA 75:1021-1023 (1978).

Substance: NGF: Nerve Growth Factor, commercially available transmitter enhancer
- ChAT activity % increase over control ([1]; single growth factor 0.02 nM): 56%
- ChAT activity % increase over control ([1]; single growth factor 0.2 nM): 36%
- ChAT activity % increase over control ([1]; single growth factor 2.0 nM, 5 days): 44%
- number of AChE positive cells (in words) [2]: did not affect the number of AChE positive cells

Substance: SRVSR RSR (SRVSRRSR) [IGF-II(33-40)]
- PERCENT MAX. BOUND ([3]; peptide 1 mM): 76%
- PERCENT MAX. BOUND ([3]; peptide .10 mM): 82%
- displacement of 125I-[Threonine59]IGF-I binding (in words) ([3]; rat brain sections): displaced
- PERCENT MAX. BOUND ([4]; peptide 1 mM): 92%
- choline acetyltransferase activity (in words) [5]: dose-dependent increase in choline acetyltransferase activity

Substance: TLCGAEL VDALQFVCGDRGFYFNKPTGYGSSS-RRAPQTGIVDECCFRSCDLRRLEMYCAPLKPAKSA [IGF-III]
- prevention of developmentally regulated motoneuron death (in words) [6]: partially prevented developmentally regulated motoneuron death
- relative potency in increasing ChAT (in words) ([7]; serum containing medium): greater potency in increasing CHAT compared with IGF-I
- choline acetyltransferase activity (in words) ([7]; serum-free and insulin-free N2 medium, 48 hr): substantial, dose-dependent increase in choline acetyltransferase activity
- PERCENT MAX. BOUND ([4]; peptide 40 nM): 17.6%
- displacement of 125I-[Threonine59]IGF-I (in words) [4]: potent displacers
- choline acetyltransferase activity (in words) [5]: active in the spinal cord assay

Substance: YFNKP TGYGS SSRRA PQT (YFNKPTGYGSSSRRAPQT) [IGF-I(24-41)]
- brain ornithine decarboxylase activity (in words) [8]: increased brain ornithine decarboxylase activity
- PERCENT MAX. BOUND ([4]; peptide 50 μM): 99%
- PERCENT MAX. BOUND ([4]; peptide 100 μM): 44%
- displacement of 125I-[Threonine59]IGF-I (in words) [4]: active in displacing
- choline acetyltransferase activity (in words) [5]: dose-dependent increase in choline acetyltransferase activity
